# Results from the supplement of paper PMC8728848.
# Some of the results follow.
# Experiments:
# Experiment in all cases: glycan array binding signal (z-score within array); higher = stronger binding
# Details in all cases: glycan notation: IUPAC condensed, linker removed
# [1] = biological target: Neu5Ac(a2-6)Gal(b1-4)Glc
# Procedure, shortened: (§1)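 The binding signal is a Z-score computed within each array. Data were drawn from 3228 arrays in the Consortium for Functional Glycomics database, restricted to those with a known protein sequence. Scores were averaged over arrays of the same protein sequence at different concentrations or buffers, and over linkers, and negative values can be taken as non-binding.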
# [2] = biological target: Neu5Ac(a2-6)Gal(b1-4)GlcNAc
# Procedure, shortened: as §1
# [3] = biological target: Neu5Ac(a2-6)Gal(b1-4)GlcNAc(b1-2)Man
# Procedure, shortened: as §1
# [4] = biological target: Neu5Ac(a2-6)Gal(b1-4)GlcNAc(b1-2)Man(a1-3)Man(b1-4)GlcNAc(b1-4)GlcNAc
# Procedure, shortened: as §1
# [5] = biological target: Neu5Ac(a2-6)Gal(b1-4)GlcNAc(b1-2)Man(a1-3)[Gal(b1-4)GlcNAc(b1-2)Man(a1-6)]Man(b1-4)GlcNAc(b1-4)GlcNAc
# Procedure, shortened: as §1
# [6] = biological target: Neu5Ac(a2-6)Gal(b1-4)GlcNAc(b1-2)Man(a1-3)[GlcNAc(b1-2)Man(a1-6)]Man(b1-4)GlcNAc(b1-4)GlcNAc
# Procedure, shortened: as §1
# [7] = biological target: Neu5Ac(a2-6)Gal(b1-4)GlcNAc(b1-2)Man(a1-3)[GlcNAc(b1-4)][Neu5Ac(a2-6)Gal(b1-4)GlcNAc(b1-2)Man(a1-6)]Man(b1-4)GlcNAc(b1-4)GlcNAc
# Procedure, shortened: as §1
# [8] = biological target: Neu5Ac(a2-6)Gal(b1-4)GlcNAc(b1-2)Man(a1-3)[Man(a1-6)]Man(b1-4)GlcNAc(b1-4)GlcNAc
# Procedure, shortened: as §1
# [9] = biological target: Neu5Ac(a2-6)Gal(b1-4)GlcNAc(b1-2)Man(a1-3)[Neu5Ac(a2-3)Gal(b1-4)GlcNAc(b1-2)Man(a1-6)]Man(b1-4)GlcNAc(b1-4)GlcNAc
# Procedure, shortened: as §1
# [10] = biological target: Neu5Ac(a2-6)Gal(b1-4)GlcNAc(b1-2)Man(a1-3)[Neu5Ac(a2-6)Gal(b1-4)GlcNAc(b1-2)Man(a1-6)]Man(b1-4)GlcNAc(b1-4)GlcNAc
# Procedure, shortened: as §1
# [11] = biological target: Neu5Ac(a2-6)Gal(b1-4)GlcNAc(b1-2)Man(a1-3)[Neu5Ac(a2-6)Gal(b1-4)GlcNAc(b1-2)Man(a1-6)]Man(b1-4)GlcNAc(b1-4)[Fuc(a1-6)]GlcNAc
# Procedure, shortened: as §1
# [12] = biological target: Neu5Ac(a2-6)Gal(b1-4)GlcNAc(b1-2)Man(a1-6)Man(b1-4)GlcNAc(b1-4)GlcNAc
# Procedure, shortened: as §1
# [13] = biological target: Neu5Ac(a2-6)Gal(b1-4)GlcNAc(b1-2)Man(a1-6)[Gal(b1-4)GlcNAc(b1-2)Man(a1-3)]Man(b1-4)GlcNAc(b1-4)GlcNAc
# Procedure, shortened: as §1
# [14] = biological target: Neu5Ac(a2-6)Gal(b1-4)GlcNAc(b1-2)Man(a1-6)[GlcNAc(b1-2)Man(a1-3)]Man(b1-4)GlcNAc(b1-4)GlcNAc
# Procedure, shortened: as §1
# [15] = biological target: Neu5Ac(a2-6)Gal(b1-4)GlcNAc(b1-2)Man(a1-6)[Man(a1-3)]Man(b1-4)GlcNAc(b1-4)GlcNAc
# Procedure, shortened: as §1
# [16] = biological target: Neu5Ac(a2-6)Gal(b1-4)GlcNAc(b1-2)[Neu5Ac(a2-6)Gal(b1-4)GlcNAc(b1-4)]Man(a1-3)[GlcNAc(b1-4)][Neu5Ac(a2-6)Gal(b1-4)GlcNAc(b1-2)[Neu5Ac(a2-6)Gal(b1-4)GlcNAc(b1-6)]Man(a1-6)]Man(b1-4)GlcNAc(b1-4)GlcNAc
# Procedure, shortened: as §1
# [17] = biological target: Neu5Ac(a2-6)Gal(b1-4)GlcNAc(b1-2)[Neu5Ac(a2-6)Gal(b1-4)GlcNAc(b1-4)]Man(a1-3)[GlcNAc(b1-4)][Neu5Ac(a2-6)Gal(b1-4)GlcNAc(b1-4)Man(a1-6)]Man(b1-4)GlcNAc(b1-4)GlcNAc
# Procedure, shortened: as §1
# [18] = biological target: Neu5Ac(a2-6)Gal(b1-4)GlcNAc(b1-2)[Neu5Ac(a2-6)Gal(b1-4)GlcNAc(b1-6)]Man(a1-6)[Neu5Ac(a2-6)Gal(b1-4)GlcNAc(b1-2)Man(a1-3)][GlcNAc(b1-4)]Man(b1-4)GlcNAc(b1-4)GlcNAc
# Procedure, shortened: as §1
# [19] = biological target: Neu5Ac(a2-6)Gal(b1-4)GlcNAc(b1-3)Gal(b1-3)GlcNAc
# Procedure, shortened: as §1
# [20] = biological target: Neu5Ac(a2-6)Gal(b1-4)GlcNAc(b1-3)Gal(b1-4)GlcNAc
# Procedure, shortened: as §1
# [21] = biological target: Neu5Ac(a2-6)Gal(b1-4)GlcNAc(b1-3)Gal(b1-4)GlcNAc(b1-2)Man(a1-3)[Neu5Ac(a2-6)Gal(b1-4)GlcNAc(b1-3)Gal(b1-4)GlcNAc(b1-2)Man(a1-6)]GalNAc
# Procedure, shortened: as §1
# [22] = biological target: Neu5Ac(a2-6)Gal(b1-4)GlcNAc(b1-3)Gal(b1-4)GlcNAc(b1-3)Gal(b1-4)GlcNAc
# Procedure, shortened: as §1
# [23] = biological target: Neu5Ac(a2-6)Gal(b1-4)GlcNAc(b1-3)Gal(b1-4)GlcNAc(b1-3)Gal(b1-4)GlcNAc(b1-2)Man(a1-3)[Neu5Ac(a2-6)Gal(b1-4)GlcNAc(b1-3)Gal(b1-4)GlcNAc(b1-3)Gal(b1-4)GlcNAc(b1-2)Man(a1-6)]GalNAc
# Procedure, shortened: as §1
binder,measurement,setting,value
PX9937B-bvu-524-33-524 (Bacteroides vulgatus) (protein) GTAYWKNPDQFTAFNTGLHALLREKSYNFFLLGEPRADIYGDNPIGGEASQGMERLPFNTINKENVGISNYGDMYKIINQINQMIAKTTETTILTEATQNYYLGEAYGMRAYLYFHLLRSWGDVVLYLDYTEGQNLDLSNITKGVSPATEVMEQIKKDIQASENAFGSDYSFKLGRHFWSAAATQMLKGEAYLWSGRQMNGGNSDYTIAKNAFENVKKADVGLVTSSFKDIFSFENKKNKEMIFTIHNGKDEYEMWGGYYRMRLIPAQDKMVKIYCDENGNSFVGTPDAQLNGLTQLQVRREFYFKGFRNNDTRWTTSLKAVYKKDAQGVVSYFGPITYKFQGTMLEGGSTRSFLDDFPIYRYADCLLQLAMAKVLLGEDPTEEINAVRERAYGSKYFNEHKAEIAYPNDNDPEFYTDNKWMKPDNAGALEAILKERLREFMFEGKRWYDIRLLGWDYVHQYSSAEQSRLLWPIDAGTLTNNSALKQTPGYE,glycan array binding signal (z-score),[1],-0.148
same,glycan array binding signal (z-score),[2],-0.274
same,glycan array binding signal (z-score),[3],-0.342
same,glycan array binding signal (z-score),[4],-0.068
same,glycan array binding signal (z-score),[5],0.451
same,glycan array binding signal (z-score),[6],-0.389
same,glycan array binding signal (z-score),[7],-0.093
same,glycan array binding signal (z-score),[8],-0.473
same,glycan array binding signal (z-score),[9],-0.399
same,glycan array binding signal (z-score),[10],-0.063
same,glycan array binding signal (z-score),[11],0.782
same,glycan array binding signal (z-score),[12],-0.238
same,glycan array binding signal (z-score),[13],-0.423
same,glycan array binding signal (z-score),[14],0.042
same,glycan array binding signal (z-score),[15],-0.299
same,glycan array binding signal (z-score),[16],-0.111
same,glycan array binding signal (z-score),[17],0.017
same,glycan array binding signal (z-score),[18],-0.321
same,glycan array binding signal (z-score),[19],-0.292
same,glycan array binding signal (z-score),[20],-0.184
same,glycan array binding signal (z-score),[21],-0.236
same,glycan array binding signal (z-score),[22],-0.4
same,glycan array binding signal (z-score),[23],1.34
